Experimental data: paper PMC11312940
No constants are given. Whether binding was seen depends on the method and setting. In cells and extracts the contact can be indirect. Some results given as binding are weak or reduced against the parent protein; the word gives no strength.

Amino acid sequences for entries named in this document (tags omitted).
UniProt P46937: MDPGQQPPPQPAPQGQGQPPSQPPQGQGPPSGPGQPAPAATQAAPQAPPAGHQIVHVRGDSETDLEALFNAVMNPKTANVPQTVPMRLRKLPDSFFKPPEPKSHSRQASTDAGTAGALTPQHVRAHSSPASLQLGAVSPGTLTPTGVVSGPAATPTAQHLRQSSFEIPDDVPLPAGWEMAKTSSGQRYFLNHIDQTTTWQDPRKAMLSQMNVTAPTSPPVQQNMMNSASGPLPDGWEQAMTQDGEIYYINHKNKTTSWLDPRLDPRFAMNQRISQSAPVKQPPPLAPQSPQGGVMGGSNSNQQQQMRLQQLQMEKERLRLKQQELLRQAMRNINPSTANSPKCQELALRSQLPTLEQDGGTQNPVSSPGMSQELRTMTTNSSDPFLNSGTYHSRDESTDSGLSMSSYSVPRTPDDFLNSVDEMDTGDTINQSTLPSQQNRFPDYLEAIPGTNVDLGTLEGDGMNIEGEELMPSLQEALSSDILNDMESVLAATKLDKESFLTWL
UniProt Q9GZV5: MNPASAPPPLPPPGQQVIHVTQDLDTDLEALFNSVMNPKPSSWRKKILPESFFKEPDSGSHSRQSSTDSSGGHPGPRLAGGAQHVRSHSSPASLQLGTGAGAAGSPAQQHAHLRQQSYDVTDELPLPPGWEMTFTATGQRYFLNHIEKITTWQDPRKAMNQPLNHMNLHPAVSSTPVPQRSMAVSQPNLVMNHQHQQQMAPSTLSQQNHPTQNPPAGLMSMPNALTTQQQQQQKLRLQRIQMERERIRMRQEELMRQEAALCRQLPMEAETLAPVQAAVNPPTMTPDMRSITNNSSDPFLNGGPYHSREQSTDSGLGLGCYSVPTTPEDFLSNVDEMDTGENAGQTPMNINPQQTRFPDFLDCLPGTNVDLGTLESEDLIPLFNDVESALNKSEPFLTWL
UniProt P46109: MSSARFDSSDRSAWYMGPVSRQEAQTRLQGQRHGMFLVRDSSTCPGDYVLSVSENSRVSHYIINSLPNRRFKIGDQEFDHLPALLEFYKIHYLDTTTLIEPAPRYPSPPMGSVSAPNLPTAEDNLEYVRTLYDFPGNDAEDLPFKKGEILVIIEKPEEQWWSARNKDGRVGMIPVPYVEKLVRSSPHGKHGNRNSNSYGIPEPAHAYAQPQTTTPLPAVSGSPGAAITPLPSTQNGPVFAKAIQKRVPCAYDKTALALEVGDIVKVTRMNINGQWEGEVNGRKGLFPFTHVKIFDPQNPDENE
UniProt P46108: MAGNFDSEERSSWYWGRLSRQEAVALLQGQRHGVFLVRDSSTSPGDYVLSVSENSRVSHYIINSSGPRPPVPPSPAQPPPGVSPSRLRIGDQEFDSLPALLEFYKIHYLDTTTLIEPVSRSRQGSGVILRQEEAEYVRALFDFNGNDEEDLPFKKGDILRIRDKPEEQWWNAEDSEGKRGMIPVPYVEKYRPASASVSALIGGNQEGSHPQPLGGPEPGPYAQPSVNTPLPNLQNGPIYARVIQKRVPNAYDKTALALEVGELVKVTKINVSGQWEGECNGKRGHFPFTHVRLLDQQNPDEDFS
UniProt Q70E73: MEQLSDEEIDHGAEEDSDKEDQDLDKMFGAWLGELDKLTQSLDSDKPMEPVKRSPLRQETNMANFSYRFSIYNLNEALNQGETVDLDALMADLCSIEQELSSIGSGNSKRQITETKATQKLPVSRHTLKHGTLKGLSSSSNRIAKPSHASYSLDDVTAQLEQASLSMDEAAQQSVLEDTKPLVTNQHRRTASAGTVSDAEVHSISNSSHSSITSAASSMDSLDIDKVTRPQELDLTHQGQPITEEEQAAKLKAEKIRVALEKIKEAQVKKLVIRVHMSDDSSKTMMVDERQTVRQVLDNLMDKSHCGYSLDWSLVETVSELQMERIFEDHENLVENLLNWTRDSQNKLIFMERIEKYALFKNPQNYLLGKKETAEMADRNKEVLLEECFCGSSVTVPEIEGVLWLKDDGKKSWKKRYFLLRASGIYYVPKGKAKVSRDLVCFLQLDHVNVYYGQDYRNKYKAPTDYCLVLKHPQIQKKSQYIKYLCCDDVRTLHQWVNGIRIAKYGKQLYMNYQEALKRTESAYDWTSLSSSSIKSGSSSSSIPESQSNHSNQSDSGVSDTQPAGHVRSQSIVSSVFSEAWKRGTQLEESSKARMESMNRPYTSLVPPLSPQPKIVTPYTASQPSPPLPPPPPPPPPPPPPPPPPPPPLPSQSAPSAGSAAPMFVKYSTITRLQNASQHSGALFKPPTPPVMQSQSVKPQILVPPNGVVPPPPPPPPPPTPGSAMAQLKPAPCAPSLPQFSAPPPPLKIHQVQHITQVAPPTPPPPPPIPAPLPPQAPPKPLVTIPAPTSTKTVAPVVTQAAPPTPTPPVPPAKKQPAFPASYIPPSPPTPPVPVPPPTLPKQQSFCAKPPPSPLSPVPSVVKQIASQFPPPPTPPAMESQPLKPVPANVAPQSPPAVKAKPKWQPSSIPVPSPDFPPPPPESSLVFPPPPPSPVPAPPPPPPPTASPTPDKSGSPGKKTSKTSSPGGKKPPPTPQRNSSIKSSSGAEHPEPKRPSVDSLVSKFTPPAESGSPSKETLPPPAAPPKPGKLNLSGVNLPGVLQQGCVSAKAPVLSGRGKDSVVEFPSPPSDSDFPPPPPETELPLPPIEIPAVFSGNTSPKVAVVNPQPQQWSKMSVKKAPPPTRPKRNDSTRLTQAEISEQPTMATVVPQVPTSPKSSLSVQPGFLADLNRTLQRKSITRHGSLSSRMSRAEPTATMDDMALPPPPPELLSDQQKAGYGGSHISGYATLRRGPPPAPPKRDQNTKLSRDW
UniProt P50552: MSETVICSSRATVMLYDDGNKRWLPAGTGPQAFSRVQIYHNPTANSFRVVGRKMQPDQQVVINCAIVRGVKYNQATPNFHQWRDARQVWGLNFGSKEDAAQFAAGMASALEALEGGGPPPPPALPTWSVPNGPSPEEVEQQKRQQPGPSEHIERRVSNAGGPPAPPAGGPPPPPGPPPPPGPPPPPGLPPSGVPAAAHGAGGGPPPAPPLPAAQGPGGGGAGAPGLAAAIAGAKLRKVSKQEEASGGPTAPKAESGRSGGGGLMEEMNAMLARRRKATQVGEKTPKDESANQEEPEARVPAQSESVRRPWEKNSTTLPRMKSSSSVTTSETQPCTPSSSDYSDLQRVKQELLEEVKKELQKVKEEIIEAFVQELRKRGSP

Experiments:
[1] = biological target: yes-associated protein (YAP), endogenous (human (endogenous in HLF and SNU449)) (UniProt P46937); assay: proximity ligation; in situ PLA (Duolink) on fixed, permeabilised HLF cells; single primary antibody as negative control
[2] = biological target: WW-domain containing transcription regulator 1 (WWTR1/TAZ), endogenous (human (endogenous in HLF)) (UniProt Q9GZV5); assay: as above
[3] = biological target: yes-associated protein (YAP), endogenous (human (endogenous in HLF and SNU449)) (UniProt P46937); assay: proximity ligation; in situ PLA (Duolink) on fixed SNU449 cells, DMSO control; YAP and CRKL antibody-only PLAs as negative control; quantified
[4] = biological target: yes-associated protein (YAP), endogenous (human (endogenous in HLF and SNU449)) (UniProt P46937); assay: co-IP; endogenous YAP or endogenous CRKL precipitated from HLF cells; IgG as negative control; CoIP as in ref. 4
[5] = biological target: yes-associated protein (YAP), endogenous (human (endogenous in HLF and SNU449)) (UniProt P46937); assay: co-IP; Supplementary Figure S2A,B; cells, constructs and who was precipitated not shown; CoIP as in ref. 4
[6] = biological target: WW-domain containing transcription regulator 1 (WWTR1/TAZ), endogenous (human (endogenous in HLF)) (UniProt Q9GZV5); assay: as above
[7] = biological target: CRK-like proto-oncogene adaptor protein (CRKL) (human (endogenous in HLF and SNU449)) (UniProt P46109); assay: co-IP; endogenous YAP or endogenous CRKL precipitated from HLF cells; IgG as negative control; CoIP as in ref. 4

Substance	binding [1]	binding [2]	binding [5]	also measured
CRK-like proto-oncogene adaptor protein (CRKL) (from UniProt P46109 1-303)	binds	no binding		binding [3]: binds; binding [4]: binds
yes-associated protein (YAP), endogenous (from UniProt P46937 1-504)				binding [7]: binds

Second part, led by results:

binding [1]	binding [2]	binding [5]	Substance	also measured
binds	binds weakly		CRK (CT10 Regulator of Kinase) (from UniProt P46108 1-304)	
		binds	RAPH1 (Ras Association and Pleckstrin Homology domains 1) (from UniProt Q70E73 1-1250)	
		binds	VASP (Vasodilator-stimulated phosphoprotein) (from UniProt P50552 1-380)	binding [6]: binds
